Experimental data published in the RNAGym collection of RNA variant scans (doi:10.1073/pnas.2313332121).
This sample is rich in variants without activity.

B1: TPR 5TU (parent)
chain: GGAUCUUCUCGAUCUAACAAAAAAGACAAAUCUGCCACAAAGCUUGAGAGCAUCUUCGGAUGCAGAGGCGGCAGCCUUCGGUGGCGCGAUAGCGCCAACGUUCUCAACUAUGACACGCAAAACGCGUGCUCCGUUGAAUGGAGUUUAUCAUG

Variants of: B1
Assay: polymerase ribozyme fitness, log enrichment relative to wild type (log ratio); higher = more active; in vitro selection for triplet polymerase activity
Summary of the method: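 In triplicate, a single round of in vitro selection was run on each mutant library, PCR-built and transcribed, covering one subunit of a heterodimeric triplet polymerase ribozyme. Frozen incubation at −7 °C followed annealing with a biotinylated primer, partner subunit and triplets, and extended constructs were then gel-excised, streptavidin-captured and taken through RT-PCR. Fitness is the logarithm of genotype enrichment over wild-type enrichment, from inverse-variance-weighted replicate averages of Illumina-sequenced inputs and outputs. […] only genotypes with ≥10 input reads and ≥1 read per output were kept.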

Variant	polymerase ribozyme fitness (log ratio)
U53A U56A G70A U109C	≤ -4.2
U53G G71C G86A	≤ -4.2
C54A C75A A91C A107G A110U	≤ -4.2
U53A C76G G92A A107C G124U C149A	≤ -4.2
U53A G68A C93U U139A G143C	≤ -4.2
A52U G67A C75U G94C G112A	≤ -4.2
A52U A137G	-2.89
A52U A60G C76U A89U C96U	-3.8
U53G C69A	≤ -4.2
U53A G70C U101G C105A	≤ -4.2
A52U C69U G94C U127A G133U	≤ -4.2
A52U U82C G83U C99A U144G U148C	≤ -4.2
A52U G88A	≤ -4.2
U53A U55A C96A U127C A138U	≤ -4.2
C54G A97U C103G	≤ -4.2
A52G U111G U139C G140C G143U	≤ -4.2
U53A C96U G126A A147G	≤ -4.2
U53G A91U G143A	≤ -4.2
U53A C87U A137U A138U	≤ -4.2
C54A G71U U90A A91U U101G U102A G126U	≤ -4.2
U53G U61A C93A G124A A147G	≤ -4.2
A52U U61G G80C C87G G94U A121U	≤ -4.2
U53A C85G G133A G143A	≤ -4.2
U53A G70A G88A C96U C123U	≤ -4.2

Variant	polymerase ribozyme fitness (log ratio)
A52U G71A C76A C95U	≤ -4.2
A52G U77G A97G C116U	≤ -4.2
C54A A91G U104G U127A G152A	≤ -4.2
C54A C57A A66G G67A A73U	≤ -4.2
U53A U56A G67U G94A U102C C116U C125U U130C	≤ -4.2
U53A G71C U77A U109G A122G	≤ -4.2
A52U U56A G71U U77A C87A C93G C95U A97U C108G	≤ -4.2
U53A C57G U102G G112U A137G G143C	≤ -4.2
A52U G74A G80C C95U A147C	≤ -4.2
C54G C57U G74A C87U A98G A122U G133U	≤ -4.2
C54A G59C C85U A91U G94U G133C	≤ -4.2
U53A G126U	0.134
U53A G126A	-0.879
C54A G71U A91G C96A A106U	≤ -4.2
U53A U148C	-3.4
A52U C75U U78A C95U A142U	≤ -4.2
C54A C87G C103A C105G U109C A147C	≤ -4.2
U53A U55A C95A A98G C123U G143C	-3.34
U53A A66G U146A A147U	≤ -4.2
U53G A98U A115G A142C U145A	≤ -4.2
U53C C72A U139C A150G	≤ -4.2
A52U G81U A98G C99A U102C C103A U148G	≤ -4.2
U53A C93G A98G	≤ -4.2
C54A U78A C85U G143C	≤ -4.2

Variant	polymerase ribozyme fitness (log ratio)
A52G U56G A73G G84A A107U A113C	≤ -4.2
C54A A97C U104A A137U	≤ -4.2
C54A C75G G83U	≤ -4.2
A52G U148G	-4.18
U53C G58C G70C G86C C95A	≤ -4.2
U53A G80U C103G C116U A142G	≤ -4.2
U53G U61A A97G A113U	-4.18
C54G A107C U146C	≤ -4.2
A52G U53G	-3.21
U53A G83A C103U C132U	-3.25
U53G G141C	-2.53
U53C C76A C96A G140C	≤ -4.2
C54A C85U C95U C99U A121C G136U	≤ -4.2
U53C G59C A91U	≤ -4.2
A52G U56A C75U C95G C96G A97C A113G U145G	≤ -4.2
U53A G62A G67C G70U A89U C95U	≤ -4.2
U53A C93U G133A A138G A142G	≤ -4.2
A52U C76G A119U C125G G140A	≤ -4.2
U53A U55A	-2.2
C54A C93A A106U A142U	≤ -4.2
U53C C95U U104A G128C U139C	≤ -4.2
U53C G143U	-2.74
A52U A73G A91U G143U	≤ -4.2
C54A A60U A89U C103A	≤ -4.2

Variant	polymerase ribozyme fitness (log ratio)
A52U U56G U61A A107G G124A G133C	≤ -4.2
C54A U78G C125U	≤ -4.2
U53A G58C C69G C87G	≤ -4.2
U53A G71A C75G C76U G86A A107U C108U	≤ -4.2
U53A U61A A106U C129U	-3.27
A52U C85G C99G C118A U144C	≤ -4.2
U53G G58A	-1.53
U53A U82C C108U A137U U146G	≤ -4.2
U53A U82G G100A	≤ -4.2
U53A C95U C96A C129G U139A U148G	≤ -4.2
U53A U56A C87A G143U	≤ -4.2
C54A U55A	-1.91
U53G G68A	≤ -4.2
U53A C54U C87G A89U G94U A97G A115G	≤ -4.2
U53G U55A G62A C93A	≤ -4.2
A52G U56C G62C C87U C96U	≤ -4.2
U53G C63U G80C G81C G84U G100U	≤ -4.2
U53A C95U C96G A142C U148C	≤ -4.2
U53A C76G C85G	≤ -4.2
C54G C75U A97U U101C	≤ -4.2
A52G U77G G84U	≤ -4.2
C54A C93A	≤ -4.2
U53C C72U C132U	-3.52
A52U C57G C87U C116U G128A	≤ -4.2

Variant	polymerase ribozyme fitness (log ratio)
U53A G71C G88A	≤ -4.2
U53A G71U C95U A137G	≤ -4.2
A52U C95G C96G C103U C114G C118A A142C	≤ -4.2
U53G C95U C125U A142C	≤ -4.2
U53C G59U A64G C99G C125G A137C	≤ -4.2
A52G U90A G92C C114U U148C	≤ -4.2
U53A U77G A91G A138U	≤ -4.2
U53A G65U G83C C103U A110G U111G	≤ -4.2
A52U C76U G86C G126C G152U	≤ -4.2
U53A G58A C69G G83A C123A U134G	≤ -4.2
C54A C105G U130C	-2.7
U53A A64G	-3.41
A52U A66G G88A G92U C105U U139A	≤ -4.2
U53G C96A A106C A115G G126A C149A	≤ -4.2
C54A C87G C114U C118U	≤ -4.2
C54A G58C A60U G92A U111A	≤ -4.2
A52G G100A	≤ -4.2
C54A C93G G94U	≤ -4.2
U53G U61A	-3.21
C54A C95A U144G A150G	≤ -4.2
U53A G59A C85A G88A U151A	≤ -4.2
U53A U61A C75A C76G C85U U127G U135G	≤ -4.2
U53A G136U U144G	-1.85
U53A U56A G71U G86C C103A A119C A121U	≤ -4.2

Variant	polymerase ribozyme fitness (log ratio)
U53G A66C G92C A121C	≤ -4.2
C54G A89G G100U A106G A137C	≤ -4.2
U53A C54A U82A G141C	-2.84
U53A G84A G126A G128U G141U	≤ -4.2
A52U C87A C103A G141U	≤ -4.2
U53G C54A A91G A110G C114G	≤ -4.2
C54A C95U C96U G140C	≤ -4.2
U53C A150G	-1.01
A52G G136U A142G	-3.58
C54A U55G C93G A107U G141C	≤ -4.2
U53A U61C C79G A115U A150U	≤ -4.2
U53G C75G C76U C96A A115C	≤ -4.2
C54G A91U G117C G141U	≤ -4.2
U53G G59U C125U G141C	-3.86
U53A G84A A89C C95A U111A A150G	≤ -4.2
A52G U53G A106C A119U G136U	≤ -4.2
A52U C69G G136U	≤ -4.2
U53A G65U C72U U90A A142G	≤ -4.2
C54G C72A U77C C85G	≤ -4.2
A52G U53A G84U A107G G141U	≤ -4.2
C54G C79A C93A	≤ -4.2
A52G U55A G58U A60U G80C G117U C125A G133U	≤ -4.2
U53A G94U U148G	≤ -4.2
U53G U135G U148A	≤ -4.2

Variant	polymerase ribozyme fitness (log ratio)
U53A G58C A66C G84A A91G U102G A119U C132A	≤ -4.2
U53G C63U G86U C114U	≤ -4.2
C54A G67A C103G	≤ -4.2
U53A C103A A120C G124A U134A	≤ -4.2
U53A C118U U134C G141A U146C	-0.702
U53A C72G U82G C149U	≤ -4.2
C54A U55A G65A U145G C149G	≤ -4.2
U53G C79G G92A A110G	≤ -4.2
A52G U53A G92A U148G	≤ -4.2
U53G A66U C93G	≤ -4.2
C54A U78G G80U C85U U134A	≤ -4.2
U53C C96G U104C C132U G152U	≤ -4.2
U53A C75U G81U C95U A98U C105G A106U	≤ -4.2
A52U C75G C85U G133A	≤ -4.2
U53A C93G	≤ -4.2
C54A C108A	≤ -4.2
A52U G68C G84U U101C C132U A150G	≤ -4.2
U53A C99U U148A C149A	≤ -4.2
U53A C76A G84C A122U	≤ -4.2
U53G U56A C75A C87A U127C G141C	≤ -4.2
U53G A107C	≤ -4.2
C54A A60U A73C A91U C99G C108A A142U	≤ -4.2
C54A A91C C95U A107C	≤ -4.2
